Data as given in PubChem BioAssay AID624170 (National Center for Advancing Translational Sciences (NCATS), 2012).
Hit rate of the full screen: of about 410,000 compounds, about 850 (0.21%) were called active. This list was built around the results that the source calls inconclusive (neither active nor inactive); the mix of calls is not that of the screen. Calls follow the shape of the dose curve; as a rule, active = well fitted inhibition curve with a large enough effect; inconclusive = small, poorly fitted or top-dose-only effect, or another doubt; inactive = no such curve, though single readings can be large or run the other way. No potency is given beside an inconclusive call; the fits are too rough.

target: Glutaminase kidney isoform, mitochondrial (Homo sapiens) (UniProt O94925); experiment: qHTS for Inhibitors of Glutaminase (GLS); settings: GLS enzymatic activity, qHTS titration; series mostly up to 45.5 µM
Method in brief: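 hKGA in 45 mM KH2PO4 pH 8.2, 0.02% Tween-20 with pin-transferred compounds; 1 mM L-glutamine (stock) plus glutamate oxidase/HRP/Amplex Red coupling added. Fluorescence read initially and after 30 min at RT.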
Potency is read from the fitted curve at half-maximal effect; tags tell the direction and shape of the fitted curve.

Chain of UniProt O94925 (O94925 whole entry, looked up, canonical isoform): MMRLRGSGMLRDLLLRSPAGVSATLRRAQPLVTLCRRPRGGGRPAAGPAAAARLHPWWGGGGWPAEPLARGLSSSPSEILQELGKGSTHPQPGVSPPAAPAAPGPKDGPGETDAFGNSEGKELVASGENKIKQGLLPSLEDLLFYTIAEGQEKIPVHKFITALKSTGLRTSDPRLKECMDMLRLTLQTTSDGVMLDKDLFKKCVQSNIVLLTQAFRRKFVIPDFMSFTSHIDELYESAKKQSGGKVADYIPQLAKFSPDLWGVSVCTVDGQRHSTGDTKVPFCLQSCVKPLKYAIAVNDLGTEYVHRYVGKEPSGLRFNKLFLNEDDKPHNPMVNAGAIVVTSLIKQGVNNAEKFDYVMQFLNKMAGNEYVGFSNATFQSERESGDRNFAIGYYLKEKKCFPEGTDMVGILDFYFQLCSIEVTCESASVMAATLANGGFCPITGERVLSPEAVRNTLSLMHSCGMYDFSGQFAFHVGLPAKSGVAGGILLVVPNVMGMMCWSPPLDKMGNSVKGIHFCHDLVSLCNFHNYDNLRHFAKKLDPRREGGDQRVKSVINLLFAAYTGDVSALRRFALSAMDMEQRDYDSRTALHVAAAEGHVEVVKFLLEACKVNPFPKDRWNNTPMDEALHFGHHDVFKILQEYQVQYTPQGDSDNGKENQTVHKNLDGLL

Question: For `CC(OCCN1CCCC1)(c1ccc(F)cc1)c1ccc(F)cc1`, which Potency is on record?
Answer: inconclusive [inhibitor, single point]

Question: For `C/C(=N\NC(=O)c1ccc(F)cc1)c1ccc(N2CCOCC2)cc1`, which Potency is on record?
Answer: inconclusive [inhibitor, single point]

Question: Which Potency does the source give for `O=C(NNc1nc2cc3c(cc2s1)OCCO3)c1ccccc1` here?
Answer: inconclusive [inhibitor, single point]

Question: With `C/C(=N\O)C1(C)N(O)C(C)(C)C(c2ccco2)=[N+]1[O-]` (stereo not given) as the compound, how does the Potency read?
Answer: inconclusive [inhibitor, single point]

Question: Which Potency does the source give for `CCN(C)C1CN(Cc2cn(CCCC(=O)OC)nn2)S(=O)(=O)C1` (stereo not given) here?
Answer: inconclusive [inhibitor, single point]

Question: `O=C(O)c1cccnc1SCC(=O)N1CCCc2ccccc21` was tested. Which Potency did it give?
Answer: inconclusive [inhibitor, single point]

Question: For `O=c1[nH]c(/C=C\c2ccc(O)c(O)c2)nc(O)c1[N+](=O)[O-]`, which Potency is on record?
Answer: active: 7.94 µM

Question: `CCOC(=O)CN(C(=O)CSc1nnc(COc2ccc(OC)cc2)n1CC)c1ccccc1` was tested. Which Potency did it give?
Answer: inconclusive [inhibitor, single point]

Question: `COc1cc(/C=C/C2=NC(=O)C(C)(C)O2)ccc1O` was tested. Which Potency did it give?
Answer: inconclusive [inhibitor, single point]

Question: Which Potency does the source give for `NS(=O)(=O)c1ccc(CCNC(=O)CCS(=O)(=O)c2ccc(Br)cc2)cc1` here?
Answer: inconclusive [inhibitor, single point]

Question: `COc1ccc2nc(NC(=O)CSc3nccc(C)n3)sc2c1` was tested. Which Potency did it give?
Answer: inconclusive [inhibitor, partial curve, poor fit]

Question: With `OC(c1ccccc1)(c1nc(/C=C/c2ccccc2)cs1)C(F)(F)F` (stereo not given) as the compound, how does the Potency read?
Answer: inconclusive [inhibitor, single point]

Question: For `CN1c2cccc3cccc(c23)N(C)C1(C)C`, which Potency is on record?
Answer: inconclusive [inhibitor, partial curve, poor fit]

Question: How did the Potency turn out when `CCOc1cc(C2c3c(oc4cc(C)cc(C)c4c3=O)C(=O)N2CCO)ccc1O` (stereo not given) was run?
Answer: inactive

Question: With `COc1ccc(/C(C)=N/Nc2nc3ccccc3n3cnnc23)cc1OC` as the compound, how does the Potency read?
Answer: inconclusive [inhibitor, partial curve]

Question: `O=Cc1c(Sc2ccccc2)nc2ccccn2c1=O` was tested. Which Potency did it give?
Answer: inconclusive [inhibitor, single point]

Question: How did the Potency turn out when `O=c1cc(-c2c(O)c3ccccc3n(Cc3ccccc3)c2=O)[nH][nH]1` was run?
Answer: inconclusive [inhibitor, single point]

Question: How did the Potency turn out when `CN(C)c1ccc2c(c1)OC(N)=C(C#N)C2c1cccc(F)c1` (stereo not given) was run?
Answer: inactive

Question: For `COc1cc(-c2nc(=S)[nH][nH]2)cc(OC)c1OC`, which Potency is on record?
Answer: inactive

Question: For `CCOc1cc(/C=C2\C(=O)NN(c3ccccc3)C2=O)cc([N+](=O)[O-])c1O`, which Potency is on record?
Answer: inconclusive [inhibitor, partial curve]

Question: With `S=c1[nH]nc(-c2ccccn2)n1/N=C/c1cccc2ccccc12` as the compound, how does the Potency read?
Answer: inconclusive [inhibitor, single point]

Question: How did the Potency turn out when `O=C1CCC/C1=C/Nc1cccc(F)c1` was run?
Answer: inconclusive [inhibitor, single point]

Question: With `Nc1ncnc(Sc2ccccc2)c1[N+](=O)[O-]` as the compound, how does the Potency read?
Answer: inactive

Question: With `Cc1ccc(NC(=O)CN2C(=O)S/C(=C/c3ccc(-c4cc(C(=O)O)ccc4C)o3)C2=O)cc1C` as the compound, how does the Potency read?
Answer: inconclusive [inhibitor, single point]

Question: `COc1ccc(-n2nnnc2SC(C)C(N)=O)cc1` (stereo not given) was tested. Which Potency did it give?
Answer: inconclusive [inhibitor, single point]

Question: Which Potency does the source give for `Oc1ccccc1Nc1ccccn1` here?
Answer: active: 12.6 µM

Question: `CCOC(=O)c1c(NC(=O)C(NCCN(C)C)c2ccccc2)sc2c1CCCC2` (stereo not given) was tested. Which Potency did it give?
Answer: inconclusive [inhibitor, single point]

Question: For `Nc1ccc2nc(C3CCCCC3)[nH]c2c1`, which Potency is on record?
Answer: inconclusive [inhibitor, single point]

Question: Which Potency does the source give for `COc1ccc(-c2cnc3c(NC=O)cc(-c4ccoc4)cn23)cc1OC` here?
Answer: inconclusive [inhibitor, partial curve]

Question: Which Potency does the source give for `C[C@H](NS(=O)(=O)OCC(Cl)(Cl)Cl)C1CC1c1ccccc1` (stereo not given in full) here?
Answer: inconclusive [inhibitor, single point]

Question: `CCNC(=O)n1nccc1C(C)Oc1ccc(Cl)cc1` (stereo not given) was tested. Which Potency did it give?
Answer: inconclusive [inhibitor, single point]

Question: For `O=C(O)CCCN1C(=O)C(=O)/C(=C(/O)c2ccccc2)C1/C=C/c1ccccc1` (stereo not given), which Potency is on record?
Answer: inconclusive [inhibitor, single point]

Question: With `CCC(C)Nc1nc(-c2c[nH]c3ccccc23)cs1` (stereo not given) as the compound, how does the Potency read?
Answer: inconclusive [inhibitor, partial curve]

Question: How did the Potency turn out when `CC(=O)c1ccc(NC(=S)Nc2ccc(N3CCOCC3)cc2)cc1` was run?
Answer: inconclusive [inhibitor, partial curve]

Question: For `O=C(NCc1ccco1)c1cccc2c1C(=O)c1ccc(/C=C/c3ccccc3)cc1S2(=O)=O`, which Potency is on record?
Answer: inconclusive [inhibitor, single point]

Question: For `COc1cc(/C=C/C(=O)OCC(=O)Nc2ccc3c(c2)OCCO3)ccc1O`, which Potency is on record?
Answer: inconclusive [inhibitor, single point]

Question: `COc1cccc(NC=C2C(=O)OC3(CCCCC3)OC2=O)c1` was tested. Which Potency did it give?
Answer: inactive

Question: With `CN1CCN(C(=O)/C=C\c2ccc(Cl)cc2)CC1` as the compound, how does the Potency read?
Answer: inactive

Question: With `Cn1ncc(S(=O)(=O)Cc2ccccc2)c(Cl)c1=O` as the compound, how does the Potency read?
Answer: active: 11.2 µM

Question: With `CCOc1ccc(C(=O)NC2CCN(C(=S)NCc3ccco3)CC2)cc1` as the compound, how does the Potency read?
Answer: inactive

Question: `Cc1cccc(N2C(=O)c3cccc4c(N(C)CCO)ccc(c34)C2=O)c1` was tested. Which Potency did it give?
Answer: inconclusive [inhibitor, single point]

Question: Which Potency does the source give for `COC(=O)N1CCN(c2ccc(OC)cc2)CC1` here?
Answer: inconclusive [inhibitor, single point]

Question: Which Potency does the source give for `Cn1c(Cl)cnc1C(O)(c1ccccc1)c1ccccc1` here?
Answer: inconclusive [inhibitor, single point]

Question: With `Cc1ccc(C)c(NC(=O)c2nc(S(C)(=O)=O)ncc2N(Cc2ccc(C(C)(C)C)cc2)Cc2ccco2)c1` as the compound, how does the Potency read?
Answer: inactive

Question: `O=C(COC(=O)/C=C/c1ccco1)NC1CCCCC1` was tested. Which Potency did it give?
Answer: inactive

Question: `Cc1c(-c2ccccn2)c(=O)[nH]n1-c1ccc(F)cc1` was tested. Which Potency did it give?
Answer: inconclusive [inhibitor, single point]

Question: With `COc1ccc(N2CCN(c3n[nH]c(N)n3)CC2)cc1` as the compound, how does the Potency read?
Answer: inconclusive [inhibitor, partial curve]

Question: For `O=c1[nH][nH]c(=S)n1C1CCCCC1`, which Potency is on record?
Answer: inconclusive [inhibitor, partial curve]

Question: Which Potency does the source give for `COc1ccc(/C=N/n2c(-c3n[nH]c4c3CCC4)n[nH]c2=S)cc1` here?
Answer: inconclusive [inhibitor, single point]

Question: How did the Potency turn out when `O=C(NCc1ccc2c(c1)OCO2)c1ccc2c(c1)N(Cc1cccc(Cl)c1)C(=O)c1ccccc1S2=O` (stereo not given) was run?
Answer: inactive

Question: Which Potency does the source give for `COc1cccc(CN2CC(C(=O)N3CCN(c4ccc(Cl)cc4)CC3)CCC2=O)c1` (stereo not given) here?
Answer: inconclusive [inhibitor, single point]

Question: How did the Potency turn out when `COc1cccc(/C=N/NC(=O)C(C)n2nnc3ccccc32)c1` (stereo not given) was run?
Answer: inconclusive [inhibitor, single point]

Question: With `COc1cc(C(=O)O)c2c(c1C)OC(=O)c1c(C)cc(O)c(C=O)c1O2` as the compound, how does the Potency read?
Answer: active: 5.62 µM

Question: For `Cc1cccc(C)c1Nc1c(-c2ccccc2O)nc2ncccn12`, which Potency is on record?
Answer: inconclusive [inhibitor, partial curve]

Question: `C=CCCC(=O)Nc1nc(C)c(-c2csc(Nc3cc(OC)ccc3OC)n2)s1` was tested. Which Potency did it give?
Answer: inactive

Question: With `CCOC(=O)C(C)/C(C)=N\Nc1ccc([N+](=O)[O-])cc1[N+](=O)[O-]` (stereo not given) as the compound, how does the Potency read?
Answer: inactive

Question: `NNC(=O)c1[nH]c2ccc(Br)cc2c1-c1ccccc1` was tested. Which Potency did it give?
Answer: inconclusive [inhibitor, single point]

Question: For `O=C(CCN1C(=O)/C(=C\c2ccco2)SC1=S)Nc1ccc(C(=O)O)c(O)c1`, which Potency is on record?
Answer: inconclusive [inhibitor, single point]

Question: With `COc1ccccc1Oc1nc2c(c(=O)n(Cc3ccccc3F)c(=O)n2C)n1C` as the compound, how does the Potency read?
Answer: inconclusive [inhibitor, single point]

Question: With `COc1ccc2nc(N/C(N)=N/C(=S)Nc3c(C)cccc3C)nc(C)c2c1` as the compound, how does the Potency read?
Answer: inactive

Question: For `COc1ccc(Nc2c3c(nc4ccccc24)CCC3)cc1`, which Potency is on record?
Answer: inconclusive [inhibitor, partial curve]

Question: Which Potency does the source give for `C/C(=N\Nc1ccc(Cl)c(C(=O)O)c1)c1cc2ccccc2o1` here?
Answer: active: 10 µM

Question: Which Potency does the source give for `N#C/C(=C\c1ccc(F)cc1)C(=O)NC1CCS(=O)(=O)C1` (stereo not given) here?
Answer: inconclusive [inhibitor, single point]

Question: `CCCc1nnc(NC(=O)CN2CCOCC2)s1` was tested. Which Potency did it give?
Answer: inconclusive [inhibitor, single point]

Question: For `COc1cc(/C=C2\N=C(c3ccccc3)OC2=O)ccc1OC(C)=O`, which Potency is on record?
Answer: inactive

Question: For `COc1ccc(-c2ccc3c(c2)S(=O)(=O)c2cccc(C(=O)NCc4cc(C)oc4C(F)(F)F)c2C3=O)cc1OC`, which Potency is on record?
Answer: inconclusive [inhibitor, single point]

Question: Which Potency does the source give for `COC(=O)c1c(-c2ccc(C(C)(C)C)cc2)csc1NC(=O)C1C2CCC(O2)C1C(=O)O` (stereo not given) here?
Answer: inconclusive [inhibitor, single point]

Question: For `COc1ccc(/C=N/Nc2nnc(C)n2N)cc1OC(C)=O`, which Potency is on record?
Answer: inactive

Question: For `S=C(NNC(=S)Nc1ccccc1)Nc1ccccc1`, which Potency is on record?
Answer: inconclusive [inhibitor, partial curve, poor fit]

Question: How did the Potency turn out when `CC1CCN(CC(=O)N2c3ccccc3CCc3ccccc32)CC1` was run?
Answer: inactive
